The text below walks through data of publication PMC10668032.

Some of the results follow. At the low end of the ranking the order means little.

In the experiment the target is SIX1-Q177R homeodomain (UniProt Q15475). Put plainly: universal protein binding microarray. The conditions noted are these: Universal all-10-mer PBM (8x60K, AMADID 030236), 300 nM GST-tagged protein, Alexa Fluor 488 anti-GST; buffer, salt, pH and temperature not stated; high values mean tight binding; most listed sequences are background and not binding sites; double strand, one strand shown.
Take GTCCATAA: the binding signal is -0.0731 E-score. Regarding CGATCACA, the binding signal is -0.0285 E-score. For the sequence ACAAACAC, the binding signal is 0.379 E-score. As for AACGGCAA, the figure is -0.16 E-score. ACCCTATG: the binding signal came to 0.095 E-score. Regarding CACTCATA, the binding signal came out at 0.195 E-score.

As to CAAAACGC, the binding signal is -0.0985 E-score. As for GCCTATAA, the binding signal amounted to 0.0766 E-score. As for ACTCCACC, the binding signal was 0.275 E-score.

With CATTTGCC, the binding signal was found to be 0.00044 E-score. In the case of AACTGCAC, the binding signal is -0.0163 E-score. For ACCTGTCC, the binding signal is -0.123 E-score.

On to TCTTGGAA, for which the binding signal is -0.0846 E-score. As to AGGCGAAA, the binding signal is -0.157 E-score. As for ATCGGTTG, the binding signal was -0.113 E-score. Regarding CGATGGCA, the binding signal was -0.132 E-score. Consider CGCTTGTC, for which the binding signal is -0.202 E-score.

Regarding AGTATGGG, the binding signal came out at 0.0865 E-score. As to GTTTCATA, the binding signal was -0.137 E-score. The same measure for TCCAAGAA: -0.241 E-score; for AATTCATA: -0.207 E-score; for TCTTAGAA: -0.201 E-score. As for AAATTAGT, the figure is -0.0802 E-score.

For the sequence CAATTTCC, the binding signal is -0.0459 E-score. As for CGCGGACC, the figure is -0.0694 E-score.

Turning to CGAATACG, the binding signal worked out at 0.0509 E-score.

Take CTGCTTTA: the binding signal is -0.163 E-score.

As for CCAGGTAC, the binding signal worked out at 0.201 E-score.

Regarding CGTCAGTC, the binding signal is -0.149 E-score. With GTTGACTA, the binding signal was -0.0467 E-score.

For GCATTTAA, the binding signal was -0.251 E-score. As to CTCATTCC, the binding signal turned out to be 0.0882 E-score.

ATCCTGGG: the binding signal turned out to be 0.0475 E-score. With AAGTGTCT, the binding signal is 0.346 E-score. As for CGCGAGCC, the figure is -0.124 E-score. Consider GCAGAAGA, for which the binding signal is -0.227 E-score. GCCACCTA: the binding signal was -0.0448 E-score. Turning to CGATTAGA, the binding signal was -0.0537 E-score. With AGGACTCG, the binding signal was -0.0146 E-score. Turning to GGAGTTGA, the binding signal is -0.0176 E-score. In the case of AGTGGAAT, the binding signal is -0.145 E-score. AAAAAAGT: the binding signal is 0.0167 E-score. With CTATCAGC, the binding signal amounted to 0.0313 E-score. As for ATCCAACC, the figure is -0.0171 E-score. On to CGAGTCTA, for which the binding signal is -0.0154 E-score. For AGTGATCC, the binding signal stood at 0.184 E-score. Take GACTAAGC: the binding signal is -0.288 E-score. CGATTGCA: the binding signal was -0.0512 E-score. For CCACATAG, the binding signal was -0.131 E-score. GCTGCCTA: the binding signal is -0.127 E-score. As for GCCGCGCA, the figure is -0.225 E-score; as for ATCAATGA, -0.0561 E-score; as for CATTTCAC, -0.214 E-score.

In the case of ACTTAGTA, the binding signal was -0.0409 E-score. Regarding ACGTCCTC, the binding signal was -0.0219 E-score.

Consider AGTACATC, for which the binding signal turned out to be 0.0196 E-score. As to GCACTCAC, the binding signal turned out to be 0.0395 E-score. As for ATAGGCCA, the figure is -0.229 E-score; as for TCAGACGA, -0.14 E-score.

In the case of AGAAACGA, the binding signal is -0.0723 E-score. With AAGTCCTC, the binding signal was -0.304 E-score. On to AAAGGGTA, for which the binding signal stood at 0.0379 E-score.

For the sequence AATTACAG, the binding signal is -0.158 E-score. The same measure for CAGCACAC: 0.269 E-score; for GGTGAACC: -0.0298 E-score; for CGCGTACG: -0.0515 E-score.

CACCCGTC: the binding signal amounted to 0.338 E-score. Regarding CTTCTGCA, the binding signal was -0.0739 E-score.

For the sequence CCCCTTGC, the binding signal is 0.0721 E-score.

Take AACGTGAA: the binding signal was -0.229 E-score. As for CGCCAAAA, the binding signal was -0.186 E-score. As for ATCACCCG, the binding signal is 0.137 E-score. Turning to ACTGTAAG, the binding signal came out at 0.0413 E-score. With GACCTGCA, the binding signal was -0.08 E-score. On to GTATTTAA, for which the binding signal is 0.0599 E-score. The same measure for AGAATCAA: 0.0333 E-score; for AAGCGGCT: -0.254 E-score; for CCCGTGTA: 0.453 E-score. The same measure for CCAGGAGA: -0.0984 E-score; for GTCCTCAC: -0.0686 E-score. Regarding AACAGGTA, the binding signal is -0.113 E-score. With GATGGTGC, the binding signal was found to be 0.0635 E-score. Take ATCTCCAA: the binding signal was -0.118 E-score. Take CGGAGGAG: the binding signal is 0.12 E-score. Turning to GTAAGGTA, the binding signal worked out at 0.0966 E-score. In the case of ACGTGCCG, the binding signal turned out to be 0.0403 E-score.

In the case of GGTTCGTA, the binding signal is -0.0259 E-score. Consider ATATTTCC, for which the binding signal is -0.158 E-score.

GACGTCCC: the binding signal was -0.134 E-score. As for CCGAGCCG, the figure is -0.0934 E-score; as for AGTGACGA, -0.108 E-score; as for CGTCTCTC, -0.0434 E-score.

Take ACTTGGGA: the binding signal was -0.101 E-score. On to GTACGCGA, for which the binding signal is -0.0273 E-score.

Take AGTAATCG: the binding signal was determined as 0.13 E-score.

Consider CAACAACA, for which the binding signal worked out at 0.195 E-score. In the case of ACTTCGAC, the binding signal is -0.0545 E-score. Regarding ATAAGATA, the binding signal is -0.128 E-score. With CGGTGCGC, the binding signal was found to be 0.221 E-score. Turning to ATCACTAG, the binding signal is 0.0582 E-score. Take AACCCGCA: the binding signal came out at 0.0339 E-score. As to GAAACTTC, the binding signal was -0.283 E-score. AGGTTACC: the binding signal is -0.0683 E-score. Consider GATAAAAC, for which the binding signal was -0.0264 E-score. Take ATTCTTAG: the binding signal is -0.222 E-score. On to AGGGACCA, for which the binding signal was -0.257 E-score. For the sequence ATTTTATC, the binding signal was -0.0664 E-score. Take CGAGCAGC: the binding signal was determined as 0.0412 E-score. Take CATTGACC: the binding signal was 0.0462 E-score. The same measure for CACGCAAA: 0.251 E-score.
